# Measurements: the supplement of paper PMC8728848
# Some of the results follow.
# Assays:
# Assay in all cases: glycan array binding signal (z-score within array); higher = stronger binding
# Conditions in all cases: glycan notation: IUPAC condensed, linker removed
# [1] = biological target: Neu5Ac(a2-6)GlcNAc(b1-4)GlcNAc(b1-4)GlcNAc
# Summary of the method: (§1)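 Glycan array data were curated from 3228 arrays in the Consortium for Functional Glycomics database and kept only where the protein sequence was available. Glycan names were converted to IUPAC-condensed notation, and columns mapping to the same glycan were averaged. The binding signal is a within-array Z-score, averaged across arrays of the same protein sequence at different concentrations or buffers and across linkers. Negative Z-scores can be read as non-binding.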
# Neu5Ac(a2-8)Neu5Ac = biological target: Neu5Ac(a2-8)Neu5Ac
# Summary of the method: as §1
# [2] = biological target: Neu5Ac(a2-8)Neu5Ac(a2-3)Gal(b1-3)GalNAc(b1-4)[Neu5Ac(a2-3)]Gal(b1-4)Glc
# Summary of the method: as §1
# [3] = biological target: Neu5Ac(a2-8)Neu5Ac(a2-3)Gal(b1-3)GalNAc(b1-4)[Neu5Ac(a2-8)Neu5Ac(a2-3)]Gal(b1-4)Glc
# Summary of the method: as §1
# [4] = biological target: Neu5Ac(a2-8)Neu5Ac(a2-3)Gal(b1-4)Glc
# Summary of the method: as §1
# [5] = biological target: Neu5Ac(a2-8)Neu5Ac(a2-3)Gal(b1-4)GlcNAc
# Summary of the method: as §1
# [6] = biological target: Neu5Ac(a2-8)Neu5Ac(a2-3)[Gal(b1-3)GalNAc(b1-4)]Gal(b1-4)Glc
# Summary of the method: as §1
# [7] = biological target: Neu5Ac(a2-8)Neu5Ac(a2-3)[GalNAc(b1-4)]Gal(b1-4)Glc
# Summary of the method: as §1
# [8] = biological target: Neu5Ac(a2-8)Neu5Ac(a2-8)Neu5Ac
# Summary of the method: as §1
# [9] = biological target: Neu5Ac(a2-8)Neu5Ac(a2-8)Neu5Ac(a2-3)Gal(b1-4)Glc
# Summary of the method: as §1
# [10] = biological target: Neu5Ac(a2-8)Neu5Ac(a2-8)Neu5Ac(a2-3)[Gal(b1-3)GalNAc(b1-4)]Gal(b1-4)Glc
# Summary of the method: as §1
# [11] = biological target: Neu5Ac(a2-8)Neu5Ac(a2-8)Neu5Ac(a2-3)[GalNAc(b1-4)]Gal(b1-4)Glc
# Summary of the method: as §1
# [12] = biological target: Neu5Ac(a2-8)Neu5Ac(a2-8)Neu5Ac(a2-8)Neu5Ac(a2-3)[GalNAc(b1-4)]Gal(b1-4)Glc
# Summary of the method: as §1
# [13] = biological target: Neu5Ac(a2-8)Neu5Gc(a2-3)Gal(b1-4)GlcNAc
# Summary of the method: as §1
# [14] = biological target: Neu5Ac(b2-6)Gal(b1-4)GlcNAc
# Summary of the method: as §1
# Neu5Ac(b2-6)GalNAc = biological target: Neu5Ac(b2-6)GalNAc
# Summary of the method: as §1
# [15] = biological target: Neu5Ac9Ac(a2-3)Gal(b1-3)GlcNAc
# Summary of the method: as §1
# [16] = biological target: Neu5Ac9Ac(a2-3)Gal(b1-4)GlcNAc
# Summary of the method: as §1
# [17] = biological target: Neu5Ac9Ac(a2-6)Gal(b1-4)GlcNAc
# Summary of the method: as §1
# [18] = biological target: Neu5Gc(a2-3)Gal(b1-3)GlcNAc
# Summary of the method: as §1
# [19] = biological target: Neu5Gc(a2-3)Gal(b1-3)[Fuc(a1-4)]GlcNAc
# Summary of the method: as §1
# Neu5Gc(a2-3)Gal(b1-4)Glc = biological target: Neu5Gc(a2-3)Gal(b1-4)Glc
# Summary of the method: as §1
# [20] = biological target: Neu5Gc(a2-3)Gal(b1-4)GlcNAc
# Summary of the method: as §1
# [21] = biological target: Neu5Gc(a2-3)Gal(b1-4)GlcNAc(b1-3)Gal(b1-4)GlcNAc(b1-2)Man(a1-3)[Neu5Gc(a2-3)Gal(b1-4)GlcNAc(b1-3)Gal(b1-4)GlcNAc(b1-2)Man(a1-6)]Man(b1-4)GlcNAc(b1-4)GlcNAc
# Summary of the method: as §1
# [22] = biological target: Neu5Gc(a2-3)Gal(b1-4)[Fuc(a1-3)]GlcNAc
# Summary of the method: as §1
# [23] = biological target: Neu5Gc(a2-6)Gal(b1-4)GlcNAc
# Summary of the method: as §1
# Neu5Gc(a2-6)GalNAc = biological target: Neu5Gc(a2-6)GalNAc
# Summary of the method: as §1
# [24] = biological target: Neu5Gc(a2-8)Neu5Ac(a2-3)Gal(b1-4)GlcNAc
# Summary of the method: as §1
# [25] = biological target: Neu5Gc(a2-8)Neu5Gc(a2-3)Gal(b1-4)GlcNAc
# Summary of the method: as §1
# [26] = biological target: Neu5Gc(a2-8)Neu5Gc(a2-3)Gal(b1-4)GlcNAc(b1-3)Gal(b1-4)GlcNAc
# Summary of the method: as §1
# [27] = biological target: Neu5Gc(a2-8)Neu5Gc(a2-6)Gal(b1-4)GlcNAc
# Summary of the method: as §1
# [28] = biological target: Neu5Gc(b2-6)Gal(b1-4)GlcNAc
# Summary of the method: as §1
binder,measurement,setting,value
"Langerin K313I (Homo sapiens), Q9UJ71 (protein) STLNAQIPELKSDLEKASALNTKIRALQGSLENMSKLLKRQNDILQVVSQGWKYFKGNFYYFSLIPKTWYSAEQFCVSRNSHLTSVTSESEQEFLYKTAGGLIYWIGLTKAGMEGDWSWVDDTPFNKVQSARFWIPGEPNNAGNNEHCGNIKAPSLQAWNDAPCDITFLFICKRPYVPSEP",glycan array binding signal (z-score),[1],-0.381
same,glycan array binding signal (z-score),Neu5Ac(a2-8)Neu5Ac,-0.309
same,glycan array binding signal (z-score),[2],-0.267
same,glycan array binding signal (z-score),[3],-0.31
same,glycan array binding signal (z-score),[4],-0.362
same,glycan array binding signal (z-score),[5],-0.371
same,glycan array binding signal (z-score),[6],-0.175
same,glycan array binding signal (z-score),[7],-0.171
same,glycan array binding signal (z-score),[8],-0.331
same,glycan array binding signal (z-score),[9],-0.299
same,glycan array binding signal (z-score),[10],-0.317
same,glycan array binding signal (z-score),[11],-0.311
same,glycan array binding signal (z-score),[12],-0.315
same,glycan array binding signal (z-score),[13],-0.376
same,glycan array binding signal (z-score),[14],-0.285
same,glycan array binding signal (z-score),Neu5Ac(b2-6)GalNAc,-0.369
same,glycan array binding signal (z-score),[15],-0.383
same,glycan array binding signal (z-score),[16],-0.377
same,glycan array binding signal (z-score),[17],-0.397
same,glycan array binding signal (z-score),[18],-0.369
same,glycan array binding signal (z-score),[19],-0.287
same,glycan array binding signal (z-score),Neu5Gc(a2-3)Gal(b1-4)Glc,-0.085
same,glycan array binding signal (z-score),[20],-0.335
same,glycan array binding signal (z-score),[21],0.158
same,glycan array binding signal (z-score),[22],-0.121
same,glycan array binding signal (z-score),[23],-0.234
same,glycan array binding signal (z-score),Neu5Gc(a2-6)GalNAc,-0.351
same,glycan array binding signal (z-score),[24],-0.318
same,glycan array binding signal (z-score),[25],-0.296
same,glycan array binding signal (z-score),[26],-0.356
same,glycan array binding signal (z-score),[27],-0.372
same,glycan array binding signal (z-score),[28],-0.35
